The source of these data is PMC4336329 (PLoS ONE, 2015).

The campaign covered roughly 310,000 compounds. About 2,200 (0.71%) showed an effect of 50% or more. Effects have a minus sign here. This is one part of the list. *1 amine or outer side, *2 acyl side, *3 side chain or, on linkers, in order; H or OH if unused. Where a SMILES comes first, the peptide text is derived from it. Bridges are numbered along the chain shown (N, C = ends). [ ]: non-standard residue; d: D form. ξ: configuration not given here. hSer(Ph(2-I,4-NO2,6-CO)) = O=C([C@H](CCOc1c(I)cc([N+](=O)[O-])cc1C(=O)[*:3])N[*:1])[*:2]; ξD = NC(CC(=O)O)C(=O)O

In the test the target is human ether-à-go-go-related gene (hERG) potassium channel (human, UniProt Q12809). Briefly: primary screen, population patch clamp on CHO cells stably expressing hERG.
Chain of human ether-à-go-go-related gene (hERG) potassium channel (Q12809 whole entry, looked up): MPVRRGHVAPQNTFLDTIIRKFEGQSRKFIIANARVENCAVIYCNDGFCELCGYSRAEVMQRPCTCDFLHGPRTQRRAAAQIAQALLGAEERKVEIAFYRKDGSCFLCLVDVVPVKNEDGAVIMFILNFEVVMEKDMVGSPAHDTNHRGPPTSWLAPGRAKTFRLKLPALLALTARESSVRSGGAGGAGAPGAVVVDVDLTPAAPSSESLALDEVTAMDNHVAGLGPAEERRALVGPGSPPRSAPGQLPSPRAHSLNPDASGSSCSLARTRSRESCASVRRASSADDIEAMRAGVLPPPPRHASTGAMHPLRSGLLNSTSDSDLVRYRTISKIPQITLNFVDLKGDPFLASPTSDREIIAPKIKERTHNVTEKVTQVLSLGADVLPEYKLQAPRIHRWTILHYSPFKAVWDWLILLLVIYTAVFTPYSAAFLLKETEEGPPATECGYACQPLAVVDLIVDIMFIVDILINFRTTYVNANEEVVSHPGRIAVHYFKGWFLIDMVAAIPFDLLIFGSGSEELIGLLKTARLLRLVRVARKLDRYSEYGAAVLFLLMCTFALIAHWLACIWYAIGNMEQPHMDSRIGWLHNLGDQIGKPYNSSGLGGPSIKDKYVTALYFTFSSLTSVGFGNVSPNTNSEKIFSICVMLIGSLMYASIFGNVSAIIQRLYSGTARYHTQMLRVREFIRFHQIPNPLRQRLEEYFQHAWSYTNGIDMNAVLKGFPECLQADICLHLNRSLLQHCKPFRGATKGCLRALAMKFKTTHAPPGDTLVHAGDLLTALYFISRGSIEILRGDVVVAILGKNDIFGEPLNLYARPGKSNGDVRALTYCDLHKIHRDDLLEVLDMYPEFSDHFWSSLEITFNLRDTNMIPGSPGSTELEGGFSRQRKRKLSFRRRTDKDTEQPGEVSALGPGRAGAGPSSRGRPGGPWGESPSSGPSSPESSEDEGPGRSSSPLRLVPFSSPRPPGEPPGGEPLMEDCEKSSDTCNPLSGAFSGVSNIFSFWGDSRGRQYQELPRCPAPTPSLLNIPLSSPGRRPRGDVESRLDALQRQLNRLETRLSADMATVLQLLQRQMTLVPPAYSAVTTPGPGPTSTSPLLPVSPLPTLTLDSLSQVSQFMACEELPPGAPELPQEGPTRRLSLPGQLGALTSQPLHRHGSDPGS
For the compound `Cc1cc(C)c(S(=O)(=O)Nc2ccc(C(=O)O)cc2)cc1S(=O)(=O)Nc1ccc(C(=O)O)cc1`, the “hERG current change (%, negative = inhibition) at 1uM” value is reported as 10.8%.
As to `COc1ccc(N(CN2C(=O)C3C4C=CC(C4)C3C2=O)C(=O)c2ccco2)cc1` (stereo not shown), the “hERG current change (%, negative = inhibition) at 1uM” value is reported as -3.38%.
For `Cc1cc(C(=O)Nc2sc(C)c(C)c2C#N)no1` the value was -4.87%; for `COc1cccc(/C=C2/CN(C)CC3=C2OC(N)=C(C#N)C3c2cccc(OC)c2)c1` (stereo not shown), 5.1%.
Regarding `CC(C)C(=O)Nc1cc(S(=O)(=O)Nc2cccc(Cl)c2)ccc1Cl`, the “hERG current change (%, negative = inhibition) at 1uM” value is 10.4%.
For `CCOc1ccc(S(=O)(=O)n2cnc3cc(C)c(C)cc32)cc1` the value was 13.2%.
For the compound `COc1cc(/C=C/C(=O)OCC(=O)Nc2cc(S(=O)(=O)N3CCCCC3)ccc2C)ccc1O`, the “hERG current change (%, negative = inhibition) at 1uM” value came to 6.12%.
The result for `CC(C)(C)c1ccccc1NC(=O)c1c(O)c2cccc3c2n(c1=O)CC3` reads 12.4%; that for `C[C@@H]1NC(=O)c2cc([N+](=O)[O-])cc(I)c2OCC[C@@H](C(=O)NC(CC(=O)O)C(N)=O)NC(=O)[C@H](CCC(=O)O)NC1=O` (stereo partly shown) (AE[hSer(Ph(2-I,4-NO2,6-CO))][ξD]-NH2; lactam N-3), -0.507%.
For `COc1cccc2c(=S)c(CCC(C)=O)c(C)[nH]c12` the value was 11.3%.
The result for `NCCNC(=O)Cc1ccc(NC(=O)Cc2ccc(Nc3ncnc4c3ncn4[C@@H]3O[C@H](CO)[C@@H](O)[C@H]3O)cc2)cc1` reads 18%; that for `Cc1cccc(/C=N/NC(=O)Cn2nccc2C)n1`, 1.2%; that for `Cc1ccc(N2CCN(C(=O)c3cn(CC4CCCCC4)nn3)C(C)C2)cc1` (stereo not shown), 12.2%.
As to `CN1C(=O)Cc2cc(S(=O)(=O)N3CCOCC3)ccc21`, the “hERG current change (%, negative = inhibition) at 1uM” value is listed as -4.57%.
As to `CN(C(=O)c1ccno1)c1nnc(-c2cccnc2)s1`, the “hERG current change (%, negative = inhibition) at 1uM” value worked out at 0.134%.
The result for `COc1cccc(-c2ccc3ncnc(NCc4cc(C)cs4)c3c2)c1` reads 9.07%; that for `COc1ccc(C)cc1NC(=O)CCCN1C(=O)CCC1=O`, -3.97%; that for `CCC(=O)n1nc(-c2cccnc2)nc1NCc1ccc(F)cc1`, 1.89%.
Turning to `COc1ccc(CNC(=O)COc2ccc(C(=O)c3ccc(F)cc3)cc2)cc1`, the “hERG current change (%, negative = inhibition) at 1uM” value came to 0.17%.
The result for `CCn1nc(C)c(NC(=O)c2ccc(Br)o2)c1C` reads 14.3%; that for `O=S(=O)(Nc1nc2ccccc2nc1Cl)c1ccc(Cl)cc1`, 4.56%.
For `Cc1ccc(NC(=O)CSc2ccccc2NC(=O)c2ccccc2Cl)cc1Cl` the value was 9.04%; for `Cc1ccc(C(=O)N2CCC(C(=O)NCc3ccco3)CC2)cc1`, 3.53%; for `CC1(C)CC2CC(C)(CN2C(=O)C23CCC(C)(C(=O)C2)C3(C)C)C1` (stereo not shown), 1.51%.
For `Cc1cc(C)cc(N2C(=O)NC(=O)/C(=C\C=C\c3ccco3)C2=O)c1` the value was 7.28%; for `CC1CN(S(=O)(=O)c2cccc(C(=O)Nc3ccc(S(=O)(=O)NC4=NCCCCC4)cc3)c2)CC(C)O1` (stereo not shown), 3.02%.
On to `COC(=O)c1ccccc1-c1ccc(/C=N/NC(=O)c2cc3ccccc3o2)o1`, for which the “hERG current change (%, negative = inhibition) at 1uM” value is given as -8.89%.
For `O=C1C2CCCN2C(c2cccs2)N1c1ccc(F)cc1` (stereo not shown) the value was 9.99%.
For `Cn1cc(Cl)c(C(=O)N(Cc2ccccc2)c2ccccn2)n1` the value was 5.97%.
For `O=c1c2c([N+](=O)[O-])cc([N+](=O)[O-])cc2nc2ccccn12` the value was 9.36%.
On to `Cc1oc(-c2ccccc2)nc1C(=O)N1CCN(c2ccc(F)cc2)CC1`, for which the “hERG current change (%, negative = inhibition) at 1uM” value is reported as 5.4%.
The result for `Cc1cc(OC(=O)c2ccccc2)n(CCC#N)n1` reads 9.76%; that for `Cc1ccc(-c2nc(CS(=O)CC(=O)NC3CCCC3)c(C)o2)cc1` (stereo not shown), 1.66%; that for `CCOC(=O)c1cc(-c2ccccc2)n(CC(=O)Nc2cccc(OC)c2)c1C`, 9.91%.
The result for `Cn1cnnc1SCC(=O)Nc1ccccc1Oc1ccccc1` reads 8.8%; that for `O=[N+]([O-])c1ccccc1CN1CCN(c2ncccn2)CC1`, 16.5%; that for `Cc1c(C(=O)C(=O)N2c3ccc(F)cc3CCC2C)c2ccccc2n1C` (stereo not shown), 30.6%.
Consider `CC(C)N(C(=O)Cn1c(=O)oc2ccccc21)c1ccccc1`, for which the “hERG current change (%, negative = inhibition) at 1uM” value amounted to 5.61%.
For `COc1ccccc1OCC(=O)Nc1ccc(S(=O)(=O)Nc2nccs2)cc1` the value was 9.14%; for `CCCCCCCCCCCCCCCC[N+](C)(C)C.O.[OH-]`, 15.3%; for `NC(=O)/C=C\c1cn(-c2ccccc2)nc1-c1ccc2c(c1)OCCO2`, 8.3%.
For `CCOc1ccc(NC(=O)CCN2CCN(S(=O)(=O)c3ccc(OC)cc3)CC2)cc1` the value was 7.61%.
The result for `CC(C(=O)NC1CCCC1)N1CCN(Cc2ccccc2)CC1` (stereo not shown) reads 5.89%.
For the compound `COc1cc(C(=O)NCCC2=CCCCC2)cc(OC)c1OC`, the “hERG current change (%, negative = inhibition) at 1uM” value amounted to 5.62%.
With `COCCCNC(=S)N(CCCO)Cc1cc2cc3c(cc2[nH]c1=O)OCCO3`, the “hERG current change (%, negative = inhibition) at 1uM” value is recorded as 11.9%.
The result for `N#Cc1cc(Oc2cccnc2)c(Oc2cccnc2)cc1C#N` reads 4.02%.
For `O=C1CCc2cc(S(=O)(=O)N3CCCC3C(=O)NC3CCCCCCC3)ccc2N1` (stereo not shown) the value was -20.3%.
The result for `O=C(Nc1ccc(NC(=O)c2cc3ccccc3o2)cc1)c1ccc2c(c1)OCCO2` reads 10.9%; that for `COc1ccccc1NC(=O)Nc1nnc(C(C)c2ccccc2)s1` (stereo not shown), 10.7%; that for `Cc1cc(C(=O)NCCCN2CCCC2=O)cs1`, 20.1%.
Consider `S=c1[nH]nc(-c2ccncc2)n1/N=C/C=C/c1ccccc1`, for which the “hERG current change (%, negative = inhibition) at 1uM” value is listed as 13.9%.
For `CC1CCCC(C)N1NC(=O)c1ccc(Cl)c(S(N)(=O)=O)c1` (stereo not shown) the value was -3.77%; for `NC(=O)c1ccccc1NC(=O)CN1CCN(Cc2ccc(Cl)cc2Cl)CC1`, -75.8%; for `NS(=O)(=O)c1cc2c(cc1Cl)NC(C1C[C@H]3C=C[C@@H]1C3)NS2(=O)=O` (stereo partly shown), 13.6%.
For `Cc1ccc2[nH]c(=O)c3cc(C(=O)N(C)c4ccc(C)c(C)c4)sc3c2c1` the value was 12%; for `COc1ccc(/C(O)=C/C(=O)C(=O)NNC(=O)C(O)(c2ccccc2)c2ccccc2)cc1`, 10.1%.
For `Cc1ccc2nc(N(CCN(C)C)C(=O)C3=COCCO3)sc2c1.Cl` the value was -5.32%; for `O=C(O)c1cccc(NS(=O)(=O)c2cccc3cccnc23)c1`, 6.39%.
For the compound `CC1=NN(C(N)=S)C(=O)C1N=Nc1ccccc1` (stereo not shown), the “hERG current change (%, negative = inhibition) at 1uM” value is recorded as 21.3%.
With `COc1cc(OC)c(C(=O)Nc2cccnc2)cc1OC`, the “hERG current change (%, negative = inhibition) at 1uM” value is given as 13.3%.
For `CCOC(=O)N1CCN(C(=O)c2ccc(Cl)c(S(=O)(=O)N3CCOCC3)c2)CC1` the value was -5.1%.
`O=C1CCc2cc(S(=O)(=O)NCCc3ccccc3)cc3c2N1CC3`: the “hERG current change (%, negative = inhibition) at 1uM” value was found to be 2.08%.
The result for `O=C(/C=C/c1ccco1)Nc1ccc2nc3n(c(=O)c2c1)CCCC3` reads 3.83%; that for `Cc1ccccc1C(=O)Nc1ccc(C(=O)N/N=C/c2ccncc2)cc1`, 7.48%; that for `Cc1ccc2c(c1)-n1c(nc3cc(F)ccc3c1=O)C(Cc1ccccc1)NC2=O` (stereo not shown), 14.9%.
For `Cc1ccc2cc(C#N)c(N3CCCN(S(=O)(=O)c4ccc(F)cc4)CC3)nc2c1` the value was 12.5%.
In the case of `Cc1cc(C=C2C(=O)NC(=S)NC2=O)c(C)n1-c1ccc2c(c1)OCO2`, the “hERG current change (%, negative = inhibition) at 1uM” value was found to be 4.91%.
For `CCC(CO)NCCNC(CC)CO` (stereo not shown) the value was 17.3%; for `COc1cc(/C=C2/SC(=S)N(CC(=O)O)C2=O)ccc1OC(=O)c1ccco1`, 7.62%.
The result for `Cc1ccc(NC(=S)N(CCCN2CCOCC2)Cc2ccco2)cc1` reads 13.3%.
On to `O=S(=O)(CCc1nc2ccccc2o1)c1ccc2ccccc2c1`, for which the “hERG current change (%, negative = inhibition) at 1uM” value was determined as 8.57%.
The result for `Cc1nonc1CN(C)C(=O)CC1C(=O)NCCN1Cc1ccccc1F` (stereo not shown) reads 11.4%; that for `CCOC(=O)c1ccc(NC2c3ccccc3C(=O)N2c2cccnc2)cc1` (stereo not shown), -3.3%; that for `CCOC(=O)[C@H]1[C@H]2COc3ccc(Cl)cc3[C@@H]2N2C(=O)c3ccccc3NC(=O)[C@@]12C`, 3.55%.
On to `COc1ccc(OC)c(/C=N/n2c(COc3ccccc3)n[nH]c2=S)c1`, for which the “hERG current change (%, negative = inhibition) at 1uM” value amounted to 12.6%.
For `COc1ccc2oc(=N)c(C(=O)Nc3ccc(F)cc3)cc2c1` the value was 22.5%.
The result for `Cc1ccc(C(=O)NCC(=O)OCC(=O)Nc2ccc(Cl)cn2)cc1` reads 8.26%.
In the case of `CC1(C)CC(=O)c2cnc3nc4ccccc4n3c2C1`, the “hERG current change (%, negative = inhibition) at 1uM” value is given as 0.441%.
In the case of `COc1ccccc1C(=O)n1nc(-c2ccccc2)nc1NCc1ccco1`, the “hERG current change (%, negative = inhibition) at 1uM” value is listed as -14.3%.
For `O=C(NCc1ccncc1)C(=O)NCC1OCCN1S(=O)(=O)c1cc(F)ccc1F` (stereo not shown) the value was 6.08%.
For `CCOC(=O)c1c(NC(=O)C2C3CCC(O3)C2C(=O)O)sc2c1CCCC2` (stereo not shown) the value was 16.7%.
With `CCc1ccc(NC(=O)C(NS(=O)(=O)c2ccc3c(c2)CCN3C(C)=O)C(C)C)cc1` (stereo not shown), the “hERG current change (%, negative = inhibition) at 1uM” value worked out at 8.51%.
For `Cc1ccc(CS(=O)(=O)CC(C)(O)c2ccccc2)cc1` (stereo not shown) the value was 13.1%; for `CC(=O)NCCn1ccc2ccccc21`, -2.38%; for `Cc1ccc(OCCn2cc(Br)c(=O)[nH]c2=O)cc1`, 12.1%.
